Target: the molecule itself
Experiment: thioflavin S fluorescence kinetics of self-assembly

B1: dGAE-C322A (domain or fragment)
chain: not shown
- binding result: binds
